Results published in the supplement of paper PMC3334620.
In all, about 33,000 sequences were measured (“E-score (-0.5 to 0.5)”: median about -0.04, highest 2% from about 0.36 on). Some of the results follow.

Molecular target: T1, Hmlalpha2 (UniProt P0CY09)
T1 sequence: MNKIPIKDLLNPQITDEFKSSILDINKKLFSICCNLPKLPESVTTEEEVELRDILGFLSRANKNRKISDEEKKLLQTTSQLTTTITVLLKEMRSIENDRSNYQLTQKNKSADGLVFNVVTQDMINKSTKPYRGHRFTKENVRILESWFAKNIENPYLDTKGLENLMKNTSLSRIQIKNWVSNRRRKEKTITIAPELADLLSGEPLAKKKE
Test: PBM E-score (8-mer binding enrichment) (E-score (-0.5 to 0.5)); higher = stronger / more preferred TF binding; most listed sequences are background and not binding sites
Conditions: protein concentration: 200 nM; construct: GST-full length
Method in brief: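 Yeast transcription factors, full-length or as DNA-binding domains, were expressed with a GST tag using PURExpress in vitro transcription/translation. At about 100-200 nM they were applied to universal all-10-mer Agilent arrays, double-stranded by primer extension on fresh or once-stripped slides. Fluorescent anti-GST detected bound protein, and masliner normalised the scans. E-scores for ungapped eight-base words, pooled with reverse complements, came from the Universal PBM Analysis Suite.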

| Sequence | PBM E-score |
| --- | --- |
| GCTGCTAA | -0.0568 |
| GTCTTAGA | 0.102 |
| CGTGCAAC | 0.0645 |
| AGGCTTAT | -0.155 |
| ATAACGGA | 0.125 |
| ATAGCCTA | -0.00808 |
| ACAACCCC | -0.0745 |
| GATGGTAC | -0.0855 |
| CAATTGTA | 0.0101 |
| ATCAGATC | -0.171 |
| CGTGGATA | 0.00463 |
| AACGAGTA | 0.184 |
| GCGGTACA | 0.0995 |
| ACGTTCAG | -0.135 |
| AAGCGGTC | -0.179 |
| ATCCAGTC | -0.0582 |
| AGCACACT | 0.012 |
| AGACTACC | -0.0614 |
| GCATAGCC | -0.0671 |
| ATCAAACC | -0.021 |
| CTTCGCTC | -0.224 |
| GAAATCCA | 0.05 |
| CTGCCGTC | -0.247 |
| CAGCTGGG | -0.172 |
| GGTTAATA | 0.129 |

| Sequence | PBM E-score |
| --- | --- |
| CTGTTCGA | -0.0447 |
| GGGTGAAC | 0.089 |
| CTAACGAA | 0.0054 |
| ATTCCTCC | -0.187 |
| AAGTGATT | 0.0454 |
| GACTTTTA | -0.0507 |
| CTGTTGCC | -0.0825 |
| ATAGACCG | -0.0246 |
| GCAAAAGA | -0.165 |
| GTGTTTAA | 0.351 |
| ACGATTAG | 0.141 |
| ATAGCCCG | -0.203 |
| AGGGACTG | -0.311 |
| ATACGCGG | 0.239 |
| AAGTCATC | -0.205 |
| AAGAACGG | -0.143 |
| AGAAGGCC | -0.213 |
| CTGCCAAA | -0.0421 |
| CGATTCTA | -0.133 |
| AAGAAGGT | -0.0083 |
| AGTCCACT | -0.226 |
| AAAAGTCC | 0.00655 |
| CTACCGCC | -0.0878 |
| TGGAGGAA | -0.256 |
| CGATAAGC | -0.202 |

| Sequence | PBM E-score |
| --- | --- |
| AGATAGGG | -0.343 |
| AGACCAAG | -0.288 |
| GAATGCAA | -0.0259 |
| ACCGGTAC | -0.197 |
| GAAAATGA | -0.00024 |
| AATAATGA | 0.0386 |
| ATGCGAAT | -0.0339 |
| AACGGATA | 0.0178 |
| CCAGTCAA | -0.166 |
| ACTCCGGA | 0.131 |
| AACCTTAT | -0.00844 |
| ACGGGCAC | -0.0945 |
| CGCGAGGC | -0.0264 |
| AATAGATC | -0.0345 |
| CCTTAGCC | -0.238 |
| TCTAAAGA | 0.248 |
| GGCCACCA | -0.139 |
| GCGGTATA | -0.0483 |
| CGTCCATA | 0.0125 |
| CGGAATTA | 0.214 |
| AGAGCAAG | -0.12 |
| ACACGAGT | 0.389 |
| GTGGCTAA | -0.0321 |
| GGTACTAA | 0.0288 |
| ACAATCGT | 0.214 |

| Sequence | PBM E-score |
| --- | --- |
| CCAAGCGG | -0.288 |
| ACGATCCC | -0.166 |
| CCCGTTCA | -0.302 |
| ACCTGATA | 0.202 |
| CTATATAC | 0.255 |
| CCAACAGG | -0.183 |
| TTGACAAA | 0.207 |
| AAAGGGGG | -0.11 |
| GTTGCTAA | 0.143 |
| CGATCTAC | 0.113 |
| CGAACAGC | -0.112 |
| CCTGTTAC | 0.176 |
| CCCTGTGA | -0.148 |
| CTGTGAAG | -0.109 |
| GGAAGTTA | 0.169 |
| AGGCATCC | -0.183 |
| ATAACACG | 0.461 |
| ATTTCCCA | 0.0804 |
| CCCCCCGG | -0.366 |
| GGTTCATA | 0.00306 |
| AATCAAAC | 0.0913 |
| AGAGATCC | -0.317 |
| CCACTTAC | 0.171 |
| CTAGCCGC | -0.119 |
| ACTACAAT | 0.137 |

| Sequence | PBM E-score |
| --- | --- |
| GGCGCGCC | -0.141 |
| ATTGCAAG | 0.091 |
| AGATCACA | 0.111 |
| CATGTGGC | 0.188 |
| CCCGAAAG | -0.159 |
| AGGCAGAA | -0.197 |
| AAGGCTAT | -0.161 |
| GCAAGTCC | -0.179 |
| AACATGCC | 0.388 |
| CCGCTACA | 0.0775 |
| ATTACCAA | 0.196 |
| AAGGGCCG | -0.241 |
| GGTACCCA | -0.123 |
| CTCGGGCA | 0.076 |
| ATGACTCC | -0.126 |
| CGAGCCGA | -0.0411 |
| AGACCATA | -0.0358 |
| CTTAGTGA | -0.168 |
| AAAGGGAT | -0.00422 |
| AGCCTCGA | -0.0211 |
| GCTTACAA | 0.275 |
| CGTTCTAC | 0.139 |
| ACCCGCGG | 0.0152 |
| CTCTCCTC | -0.272 |
| AGAAAGCC | -0.0885 |

| Sequence | PBM E-score |
| --- | --- |
| CAATGGAG | -0.138 |
| TACCCGCA | 0.0649 |
| CAAGAAAA | 0.0858 |
| AGTCACCG | -0.182 |
| AGAAACCC | 0.0172 |
| AGCAGCCA | -0.0603 |
| TAATGTAA | 0.431 |
| GACTTGAA | -0.231 |
| CCCTGAAG | -0.314 |
| CCCTGGGA | -0.252 |
| CAACTACA | 0.316 |
| GCCAGCCA | -0.239 |
| ATGTACCA | 0.22 |
| CGGTGGAC | -0.136 |
| CCTGGAGA | -0.152 |
| GACATGGA | 0.263 |
| CCTCCTCC | -0.124 |
| CACTCGAG | -0.178 |
| GATCGATC | -0.143 |
| GATGTGAC | -0.0742 |
| CCTTGTAC | 0.327 |
| CCCCATAC | -0.252 |
| AGTTTTGG | 0.0681 |
| AGCTCAGG | -0.134 |
| GTGACCTA | -0.0194 |

| Sequence | PBM E-score |
| --- | --- |
| CGTGGTAG | -0.0742 |
| AAATCCGA | 0.0207 |
| CGCTGATC | -0.177 |
| GCGGTCTA | 0.241 |
| CCAAGGTC | -0.204 |
| ACGCAGCT | 0.273 |
| AGCAATTG | 0.0454 |
| GGAACCAC | -0.093 |
| CATCCAGG | -0.233 |
| CACTATAA | 0.0678 |
| ATATACTC | 0.0152 |
| AAGCCGGC | -0.151 |
| AGCGTATA | 0.104 |
| AGGGCATC | -0.221 |
| CATGCGTA | 0.358 |
| TGCACGCA | 0.037 |
| CCAAGAAA | -0.0334 |
| AATACTAA | 0.134 |
| GGTAGGAA | -0.0956 |
| ATCAAAAT | 0.0538 |
| AACGTTCA | 0.085 |
| TAACCGAA | -0.0258 |
